Measurements published in the supplement of paper PMC4723716.
Over roughly 3,600 compounds, “viability index relative to DMSO control” has its median near 0.81; the lowest 2% begin near 0.13. Some of the results follow.

tested on: Plasmodium falciparum NF54 stage V gametocytes; experiment: viability index relative to DMSO control (fraction); higher = less gametocyte killing; settings: 1.25 µM, incubation time: 72 h
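Further: 384-well serum-free SaLSSA: MitoTracker Red CMXRos staining with saponin lysis, high-content imaging, treated-well particle count divided by plate-mean count of DMSO wells.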

| Compound | viability index |
| --- | --- |
| CCCN(C(=O)C(=O)Nc1ccc2nc3n(c(=O)c2c1)CCCCC3)c1ccc(OCC)cc1 | 0.353 |
| O=C(Nc1ccc(Oc2cccc(Oc3ccc(NC(=O)c4ccc(Br)o4)cc3)c2)cc1)c1ccc(Br)o1 | 0.822 |
| O=C(NCc1ccco1)C1CCN(S(=O)(=O)c2ccc(Br)cc2)CC1 | 1.03 |
| COc1cc(C=C2SC(=Nc3ccccc3)NC2=O)ccc1OCc1ccccc1Cl | 0.777 |
| CC[n+]1c(C=C2C=C(C)CC(C)C2)sc2ccccc21 (centres undefined) | 0.696 |
| CCCc1ccc(OCCNC(=O)CCNC(=O)Nc2cccc(Cl)c2)cc1 | 0.804 |
| O=C(Nc1cc(Cl)cc(Cl)c1)Nc1ccccc1C(=O)NCC1CC1 | 0.946 |
| C=CCOc1ccccc1CN1CCN(c2ccccn2)CC1 | 0.771 |
| CCCOC(=O)C1=C(C)NC2=C(C(=O)CC(c3ccc(OC)c(OC)c3)C2)C1c1cccc(Br)c1 (centres undefined) | 0.83 |
| N#CC(=Cc1cn(Cc2ccc(Cl)cc2Cl)c2ccccc12)c1nc2ccccc2[nH]1 | 0.638 |
| OCC[n+]1ccc(C=Cc2c[nH]c3ccccc23)cc1 | 0.741 |
| O=c1c([N+](=O)[O-])cccn1Cc1ccc(F)cc1Cl | 1.15 |
| COc1cc(NCCCC(C)Nc2ccnc3cc4ccccc4cc23)c2ncccc2c1 (centres undefined) | 0.638 |
| COc1ccc(C2C(C(=O)Nc3cc(Cl)c(OC)cc3OC)c3ccccc3C(=O)N2C)cc1 (centres undefined) | 0.273 |
| Cc1cccc(N2C(=O)C3C(C2=O)C2(c4ccccc4)C(=O)C3(c3ccccc3)C(c3ccccc3)=C2c2ccccc2)c1 (centres undefined) | 0.943 |
| Cc1ccc(Cn2c(N3CCC(C(=O)NCc4ccccn4)CC3)nc3ccccc32)cc1 | 0.614 |
| CC1CC(C)CN(CCCNc2ccc(C(=O)Nc3ccc(C(F)(F)F)cc3)cc2[N+](=O)[O-])C1 (centres undefined) | 1.06 |
| FC(F)(F)c1cccc(-c2cncc(N3CCN(c4ccccn4)CC3)n2)c1 | 0.494 |
| CC1=C(C(=O)Nc2ccccn2)C(c2ccc(O)cc2)n2ncnc2N1 (centres undefined) | 1.13 |
| O=C(COc1ccccc1)NC(c1ccc([N+](=O)[O-])cc1)c1cc(Cl)c2cccnc2c1O (centres undefined) | 0.606 |
| CCCc1c(C(=O)OCC)c2cc(O)ccc2n1-c1ccc(OC)cc1 | 0.731 |
| COCCNC(=O)CN1C(=O)CC(C)(C)Sc2ccccc21 | 0.909 |
| O=C(NC(=S)Nc1ccc([N+](=O)[O-])cc1Cl)c1ccco1 | 0.86 |
| CC(C)=CCCC(C)=CCCC(C)NCCN1CCNCC1 (centres undefined) | 0.135 |
